The supplement of paper PMC3334620
Whole data set: some 33,000 sequences, median “E-score (-0.5 to 0.5)” near -0.01, cut for the highest 2% near 0.26. The list shows a part of the results.

target: Ste12 (UniProt P13574); test: PBM E-score (8-mer binding enrichment) (E-score (-0.5 to 0.5)); higher = stronger / more preferred TF binding; most listed sequences are background and not binding sites; conditions: protein concentration: 200 nM; construct: GST-DNA-binding domain
Protocol: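 Universal 'all 10-mer' protein binding microarrays (Agilent AMADID 015681) probed with GST-tagged S. cerevisiae TFs (full-length or DBD) made by in vitro transcription/translation (PURExpress), about 100-200 nM. Bound TF was detected with fluorescent anti-GST. Each ungapped 8-mer (which stands for itself and its reverse complement) is scored by the PBM enrichment score (E-score), a modified Wilcoxon-Mann-Whitney statistic from -0.5 to +0.5, computed with the Universal PBM Analysis Suite. Scale: above 0.35 generally sequence-specific binding.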

Sequence	PBM E-score
GGTAAAAC	0.239
GGAGAACA	-0.0881
CAAACCTG	-0.0301
CTAGCAAG	-0.218
ATAACTGG	0.1
GAAGGAGA	-0.107
AAATCCAA	0.131
CAGAGAGA	-0.113
AATTATTC	0.188
CGGGGTAG	-0.106
CAGTGCCG	-0.0275
GCAGATTA	-0.0176
AAATCGCA	0.0432
AGCTAAGG	-0.394
ACCACCAC	0.03
AGAAATTC	-0.037
CGGTTTCA	0.452
CCTTGTGA	0.0382
CGCTGCCC	-0.307
CACAACGA	0.0672
CAAGGTGG	-0.0371
GTATCAGA	0.119
GGACTGCA	-0.0935
CAGTTGTC	-0.0952
TATAGGAA	0.00194

Sequence	PBM E-score
GACTCACC	-0.207
GCCACTCA	-0.0406
CTTCGAAC	0.0217
CGGACCCC	-0.0902
ACATCAGC	0.0739
GACTAGAA	0.113
ATCGGCGG	0.0458
CTTGGGTA	0.0573
ATCCCATC	-0.0314
ATTTGGGA	0.107
ACGTGCCT	-0.166
GTTACAAC	0.289
ATCTTCGG	-0.0513
AAACTAAT	0.138
AATCGAAC	0.00242
AGCCTGCG	-0.106
GTCCCCAC	-0.112
GAGTGGTA	-0.0637
ATGTCAAT	0.0447
TAACGACA	0.0507
GTAGCTCA	-0.0851
CCCTAGAG	-0.209
GCCTATCC	-0.214
ATCAAAGA	0.127
GATTCGGC	0.0402

Sequence	PBM E-score
ATATTAGG	0.00128
GGATAACA	0.102
ACGTTCAA	-0.13
AGCATGTC	-0.104
ATTGCAAT	0.0401
ATCGACAA	0.225
AGGATGGA	-0.113
AGTACCCC	0.0137
CAAACCAC	0.0475
ACATCAAT	0.219
GAAGTTAA	-0.0418
CCAAAGTA	0.0518
AGGCTGAG	0.0657
CCGGGAGC	-0.172
CAACATCC	-0.0922
CGACAAGC	0.0292
CGCTGTGC	-0.05
ATGATCTG	-0.098
AGGGACCT	-0.127
ACAACTGC	-0.14
AAATACAT	0.0653
ACGGGTCA	-0.226
ATGGAAAA	0.186
ACCTCCAA	-0.197
TCCTGCCA	-0.134

Sequence	PBM E-score
GAGCTAAA	0.0475
AAATTGAT	0.22
ATTTGTGA	0.148
CCTGATCG	-0.0228
ATAGCCAG	-0.196
GAAAAGGA	0.179
GGACAAAC	-0.013
ATCAATGC	0.108
AACATCCA	0.0519
AATAACAC	0.186
GACCAAGC	-0.124
AAACCCAG	0.0806
ACATCAAC	0.187
CCACCAAG	-0.105
ACCATTCG	-0.0543
CGTAAGTC	-0.0977
ATTGCAAA	0.142
TATGACAA	0.0959
CAATCAGG	0.0397
GCCGGCCC	0.0652
CAAGCTTA	0.00549
GACTGTCC	-0.195
GGGAAAAC	0.116
CGTTAATA	0.203
ATTAAGTA	0.0358

Sequence	PBM E-score
GGGACAAC	0.0742
CGGTTAGC	-0.103
GACTAAGC	-0.0404
CAGCTACA	-0.0685
GCCTTGCC	-0.0716
GTGCCCAA	-0.177
GAGTATAC	-0.121
CAATACGA	0.0374
ACGGTCTG	-0.0532
AATCTGAG	0.0703
CTTTAAAA	0.266
CCGGTCGA	0.053
AAACATAA	0.306
TAAACATA	0.218
ATCTACAT	0.0249
GGGTACGA	-0.0683
CCCACTTC	0.00838
ATATCCAG	-0.0284
ATAATCCA	0.118
ATAGGGAG	-0.135
CGTGCCGA	-0.0543
ATCCTACG	-0.141
AGGGCGTA	-0.176
GCACCGGC	0.0956
TACAAGTA	0.116

Sequence	PBM E-score
GACCCTGC	-0.0571
AGGGATAA	0.182
GCCGCCGA	0.0391
ATTCACGA	0.0731
CGGTAGGA	-0.167
ACTAGTCT	-0.00065
AATGGAGA	-0.0154
AGGCAAAG	-0.0376
ATTTGTTG	0.181
AAACGGAG	0.0885
CAACTTAG	0.106
GATTGTAA	0.167
ACGACGAG	-0.137
AAGCTATT	-0.103
CTGTTATA	0.105
CCTGCGTC	-0.192
AACAAACA	0.269
AAATTTAG	0.169
GCCAACGA	0.0515
CCGGAGCG	0.119
CAACGGGC	0.0406
GACGGTCC	-0.25
ACAAGTTG	0.0796
GATGTTCA	-0.181
ATGGGCGC	0.038

Sequence	PBM E-score
GGTAAGCA	-0.0119
ACGGGTTG	-0.246
AAACCCCT	-0.0815
ATTAGAAC	0.131
ACATGAGA	0.208
AGCACGCA	-0.187
TCTGTTAA	0.0508
TGCATCCA	-0.0478
TCAGGGCA	-0.0383
ACTACGCT	-0.0983
GCACACCC	-0.0896
CTACGCCA	-0.235
CCGAAGTC	-0.149
ACGCTAGT	0.0183
CGGTGGCC	-0.0746
AAAAACTG	0.166
CGGCAGGA	-0.125
GAGGCTAA	0.0402
CCCGCAAC	0.00366
TAGATGAA	0.279
CGGAAGAA	0.0583
CTACTGCC	-0.123
GCCCTTGA	-0.21
CAACCTCA	-0.0257
TACGAACA	-0.0323

Sequence	PBM E-score
CAAATTGA	0.0569
AAGCCTCT	-0.291
AAGGTGAG	0.00195
AAGCTGCA	-0.00781
ACGGGCTC	-0.242
AGGCACAA	0.0987
AGAGATCT	-0.0264
GAACCGTC	0.0624
GAGTTACC	-0.157
ACGGTTCA	-0.186
CAGAGCTC	-0.223
GCGCGACA	0.173
GCACCAAC	-0.122
CAGCATAC	-0.0358
CCCCACTA	-0.0573
AGACGCGG	0.0721
GGGAATGA	0.228
GAGGTGCC	-0.141
GCCACTTA	-0.174
TACGACTA	-0.143
ATCTATTG	0.102
CCCGTGCG	-0.0378
GGCTAGCA	-0.0527
ACCAGATC	0.0912
CATGACCA	-0.0804

Sequence	PBM E-score
ATAATCAT	0.185
CTATGCGA	0.00611
CCTTGAGA	-0.0427
AACTTAAT	0.169
ACATAGTA	0.118
AACATATG	0.114
AGGGTAAA	0.165
CCAATCAA	-0.0271
AAGGCGGC	-0.0929
AGGGCAAT	-0.123
AAGGAAAA	0.164
CCAGTATC	0.0407
GAGTGTAA	0.127
AGGGAACC	-0.111
CGATCCTA	-0.027
GAGCTCGC	-0.0349
ACAACGCG	0.12
AAGCACCC	-0.204
CACGGTTC	-0.204
CCGAATTA	0.104
GATCGTCC	-0.0224
ACTACGTC	-0.295
CTTGCCCC	-0.124
GAATGGGA	-0.0412
ATATCTTC	0.205

Sequence	PBM E-score
CATAATCC	0.162
AGAACAGG	-0.221
TTGTTAAA	0.221
GCGCAGTA	0.147
GGTGTCGA	0.0194
CTGAGGAC	-0.173
ACATCTGC	-0.131
ATCGAACG	0.0505
AAATATGA	0.308
ATGACGCC	-0.11
ACCTACCT	0.0101
AACGCCGG	0.0581
AAGTGTGT	0.0841
GGAAAGGA	0.0506
GACCTAAC	-0.078
CTTCTCGA	-0.193
CTAAACGA	0.00236
CATATAGA	-0.0222
ATCTGGTG	0.0672
AGTCTGAT	-0.0115
CGAGGACA	-0.0668
GAGACACC	-0.0695
GCCGATGA	-0.153
GGCTTCAC	-0.244
ATGCCCAA	-0.0251

Sequence	PBM E-score
ACGCGATC	-0.0567
CTTTCCCC	0.162
ACTGAAAC	0.477
ACACAAAA	0.26
CCGTCAGA	0.00778
CCGCCGGC	0.167
ATGTTGTA	-0.00602
AGCTGCTG	-0.172
AACCTAGT	0.0524
ATTTTTAC	0.207
ACTGTGTG	0.0733
GCGTAGAA	-0.125
CACGACCC	-0.0704
CGTCTATA	0.00887
ACAGTAGT	0.0635
AATGACCG	-0.0728
GCTGATAC	0.0886
CCCCAGGA	-0.116
CCGTCGAC	0.0574
ATACCCAA	0.132
AATGGCAC	0.0265
GTCCCCAA	-0.132
GCAGGTAA	0.0649
ACGTTGAC	-0.132
CAAGGCGG	-0.0455

Sequence	PBM E-score
AGAAGCTA	-0.0882
AATGCGCG	0.00894
GTGGTAGA	-0.0374
CTCGCGCA	-0.126
ACACGCCT	-0.0826
ATCTGCTA	0.0482
TAATCACA	0.038
ACCTTAAG	0.106
CCCCGAAA	0.0573
AATCGTCG	-0.118
ACGAAAGC	-0.00831
ATGAACCG	-0.0284
CGACCCCC	-0.081
GAGGTCAC	-0.049
CCACAGAC	-0.151
GGACTCAC	-0.292
ACCGGTGG	-0.134
TAGGCAAA	-0.00319
AAAGGCGG	-0.0661
ATTCCCAC	0.0371
AATGAGGC	-0.135
GCAATCAC	-0.0086
GCACTTCC	-0.114
ACTCGCTA	-0.11
AATACCTG	-0.00358

Sequence	PBM E-score
CCTCCGAA	-0.187
GAACAGGC	-0.0496
AATAGCGA	0.121
AAACCACT	0.126
GCCCGGAC	-0.121
CTGATTGA	0.075
ACCGATTA	0.00932
AATAGGTC	0.0223
AACGATGA	0.0695
ACCCATAT	0.0578
GTTTACGA	0.0472
ACTCGGAG	0.0551
CCGCTCCG	-0.0939
CAGGCGCG	-0.101
CGAGAGCG	-0.077
TACTATAA	0.14
CAGCAACC	-0.0222
TGTATAAA	0.018
AAACCCTC	0.164
ACAGAACC	-0.23
TATCAAGA	0.124
AACGCTTG	-0.0486
ACCTGATC	-0.0449
CTCTTAAC	0.112
ACGAGAAC	-0.0536

Sequence	PBM E-score
GCACGGTA	-0.285
CTGACTCC	-0.0506
ATGTACGC	-0.21
GCCCGCAC	-0.0446
ACGATATG	0.0363
ACATTTAA	0.32
ATAATGCG	-0.0284
GGCTCCCC	-0.0423
CGGGATAC	0.193
ATCATGTG	0.00622
AACTTAGT	-0.0656
AAACTACA	0.206
CATCGAAC	0.00393
ACGGCAGA	0.0125
ACTGATCG	-0.165
GCCTGGGA	-0.23
AGCACCCA	-0.025
ATACGAAC	-0.0175
GAGGGGGA	-0.175
